Where a name gives a salt, the structure may show the parent alone. ± gives the standard deviation of the averaged measurements. Some of the results follow. *1 amine or outer side, *2 acyl side, *3 side chain or, on linkers, in order; H or OH if unused. Where a SMILES comes first, the peptide text is derived from it. Bridges are numbered along the chain shown (N, C = ends). Roman numbers before positions name the chains, in order. [ ]: non-standard residue; d: D form. Actinocin(9to1) = Cc1c2oc3c(C)ccc(C(=O)[*:1])c3nc-2c(C(=O)[*:2])c(N)c1=O; NMeV = CN[C@H](C(=O)O)C(C)C; Sar = CNCC(=O)O
Experiments:
Conditions in all cases: priming compound concentration 100 µM
hAMSC donor 1 [1] = assay: Hoechst total cell count ratio vs vehicle control; higher = more cells (less toxicity)
hAMSC donor 2 [2] = assay: as above
hAMSC donor 1 [3] = assay: transgenic luciferase activity (RLU/mg protein) fold change vs vehicle control (ratio); higher = more transgene expression
hAMSC donor 2 [4] = assay: as above
hAMSC donor 1 [5] = assay: transfection efficiency (EGFP+ cells / Hoechst count) fold change vs vehicle control (ratio); hAMSC are human adipose-derived mesenchymal stem cells given an EGFP-luciferase plasmid by lipofection; higher = enhanced transfection
hAMSC donor 2 [6] = assay: as above
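Throughout, for Hoechst total cell count ratio vs vehicle control: compound added 30 min before Lipofectamine 3000 lipoplex delivery, triplicate-well means expressed against DMSO vehicle control wells of the same 96-well plate.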
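Throughout, for transfection efficiency (EGFP+ cells / Hoechst count) fold change vs vehicle control: compounds added 30 min before Lipofectamine 3000 lipoplex transfection, triplicate means relative to DMSO vehicle wells on the same plate, luciferase RLU normalized to BCA total protein.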
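Throughout, for transgenic luciferase activity (RLU/mg protein) fold change vs vehicle control: compounds in DMSO added 30 min before Lipofectamine 3000 transfection of pEGFP-Luc in 96-well plates, values are means of triplicate wells over DMSO vehicle wells on the same plate.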

Structure (SMILES)	Hoechst total cell count ratio (hAMSC donor 1 [1])	Hoechst total cell count ratio (hAMSC donor 2 [2])	transgenic luciferase activity (hAMSC donor 1 [3])	transgenic luciferase activity (hAMSC donor 2 [4])	transfection efficiency (hAMSC donor 1 [5])	transfection efficiency (hAMSC donor 2 [6])
O=C1CC[C@@H](C(=O)N2CSC[C@H]2C(=O)O)N1 [Pidotimod] (HELM PEPTIDE1{[Glp].[O=C(O)[C@@H]1CSCN1[*:1]]}$$$$V2.0)	1.37 ± 0.21	1.19 ± 0.015	1.5 ± 0.17	1.12 ± 0.075	1.24 ± 0.41	0.853 ± 0.25
C[C@]12CCC(=O)C=C1CC[C@@H]1[C@@H]2[C@@H](O)C[C@@]2(C)[C@H]1CC[C@]2(O)C(=O)CO [Hydrocortisone]	1.51 ± 0.021	1.56 ± 0.057	12.1 ± 3.9	3.1 ± 0.18	1.62 ± 0.7	1.45 ± 0.096
CCOc1cc(N)c(Cl)cc1C(=O)NCC1CN(Cc2ccc(F)cc2)CCO1 (configuration not stated) [Mosapride citrate]	1.84 ± 0.087	1.27 ± 0.058	1.48 ± 0.043	1.01 ± 0.2	1.48 ± 0.2	0.836 ± 0.21
CCN(CC)CCCC(C)Nc1c2ccc(Cl)cc2nc2ccc(OC)cc12 (configuration not stated) [Quinacrine hydrochloride hydrate]	0.237 ± 0.072	0.0557 ± 0.03	0.00188 ± 0.0004	0.000565 ± 0.00018	–	–
CC1=C(C/C=C(\C)CCC[C@H](C)CCC[C@H](C)CCCC(C)C)C(=O)c2ccccc2C1=O [Phylloquinone]	1.38 ± 0.18	1.51 ± 0.094	0.716 ± 0.51	0.749 ± 0.24	0.64 ± 0.14	0.544 ± 0.1
CC(C)[C@H]1CC[C@H](C(=O)N[C@H](Cc2ccccc2)C(=O)O)CC1 [Nateglinide]	1.23 ± 0.17	0.942 ± 0.13	1.37 ± 0.2	0.551 ± 0.084	0.957 ± 0.24	1.21 ± 0.08
C[C@@H]1C[C@H]2[C@@H]3C[C@H](F)C4=CC(=O)C(Cl)=C[C@]4(C)[C@@]3(F)[C@@H](O)C[C@]2(C)[C@@]1(O)C(=O)CO [Halometasone monohydrate]	0.965 ± 0.059	2.34 ± 0.25	3.35 ± 0.38	1.57 ± 0.061	0.897 ± 0.27	0.552 ± 0.045
CC(C)(O)c1ccccc1CC[C@@H](SCC1(CC(=O)O)CC1)c1cccc(/C=C/c2ccc3ccc(Cl)cc3n2)c1 [Montelukast sodium]	1.23 ± 0.079	1.06 ± 0.22	1.03 ± 0.24	1.89 ± 0.089	0.282 ± 0.023	0.754 ± 0.038
COC(=O)Nc1nc2cc(C(=O)c3ccccc3)ccc2[nH]1 [Mebendazole]	1.22 ± 0.15	0.163 ± 0.1	0.245 ± 0.065	0.0264 ± 0.031	–	–
CN(C)CCC=C1c2ccccc2CCc2ccccc21 [Amitriptyline hydrochloride]	1 ± 0.015	0.905 ± 0.16	0.13 ± 0.11	0.554 ± 0.17	0.471 ± 0.27	0.676 ± 0.25
CCOc1ccc2ccccc2c1C(=O)N[C@@H]1C(=O)N2[C@@H]1SC(C)(C)[C@@H]2C(=O)O [Nafcillin sodium]	1.02 ± 0.11	0.916 ± 0.13	4.07 ± 3.8	3.14 ± 1.1	1.77 ± 0.16	1.65 ± 0.16
CC(C)n1c(/C=C/C(O)CC(O)CC(=O)O)c(-c2ccc(F)cc2)c2ccccc21 (configuration not stated) [Fluvastatin]	0.757 ± 0.11	0.454 ± 0.061	0.415 ± 0.14	0.59 ± 0.25	2.44 ± 0.56	1.14 ± 0.16
Cc1[nH]cnc1CN1CCc2c(c3ccccc3n2C)C1=O [Alosetron monohydrochloride]	1.12 ± 0.042	1.16 ± 0.017	0.198 ± 0.033	0.628 ± 0.093	0.894 ± 0.15	1.01 ± 0.28
CCCCCCNC(=O)n1cc(F)c(=O)[nH]c1=O [Carmofur]	1.11 ± 0.19	0.471 ± 0.073	0.328 ± 0.28	1.05 ± 0.63	1.42 ± 0.59	1.09 ± 0.24
Nc1nc2ccc(Cl)cc2c2nc(-c3ccco3)nn12	2.2 ± 0.21	1.58 ± 0.053	0.272 ± 0.064	0.491 ± 0.15	1.52 ± 0.57	1 ± 0.29
O=C(O)c1cccnc1 [Nicotinic acid]	1.18 ± 0.07	1.23 ± 0.091	0.808 ± 0.43	1.42 ± 0.48	0.884 ± 0.19	1.59 ± 0.28
Cc1c2oc3c(C)ccc(C(=O)N[C@@H]4C(=O)N[C@H](C(C)C)C(=O)N5CCC[C@H]5C(=O)N(C)CC(=O)N(C)[C@@H](C(C)C)C(=O)O[C@@H]4C)c3nc-2c(C(=O)N[C@@H]2C(=O)N[C@H](C(C)C)C(=O)N3CCC[C@H]3C(=O)N(C)CC(=O)N(C)[C@@H](C(C)C)C(=O)O[C@@H]2C)c(N)c1=O [Dactinomycin] (I: T[dV]P[Sar][NMeV] / II: T[dV]P[Sar][NMeV]; ester I:1-I:C, II:1-II:C; linker I:N-II:N via Actinocin(9to1))	0.466 ± 0.1	0.075 ± 0.029	0.00194 ± 0.00037	0.000235 ± 9.2e-05	0.0876 ± 0.076	0
CCS(=O)(=O)CCn1c([N+](=O)[O-])cnc1C [Tinidazole]	1.66 ± 0.068	1.06 ± 0.086	0.312 ± 0.19	0.503 ± 0.064	0.906 ± 0.31	1.17 ± 0.12
C[C@]12C=CC(=O)C=C1CC[C@@H]1[C@@H]2C(=O)C[C@@]2(C)[C@H]1CC[C@]2(O)C(=O)CO [Prednisone]	1.21 ± 0.12	1.16 ± 0.53	1.24 ± 0.36	1.11 ± 0.034	1.55 ± 0.36	0.997 ± 0.26
Cc1nccn1CC1CCc2c(c3ccccc3n2C)C1=O (configuration not stated) [Ondansetron]	1.47 ± 0.081	1.19 ± 0.12	0.936 ± 0.35	0.675 ± 0.33	0.833 ± 0.044	1.24 ± 0.24
O=C(c1ccc(F)cc1)C1CCN(CCn2c(=S)[nH]c3ccccc3c2=O)CC1 [Altanserin hydrochloride]	0.93 ± 0.08	0.496 ± 0.023	1.58 ± 0.6	0.881 ± 0.54	–	–
CC(C)(C(=O)c1cccnc1)c1cccnc1 [Metyrapone]	1.13 ± 0.14	1.22 ± 0.081	0.59 ± 0.022	1.42 ± 0.18	0.695 ± 0.14	1.03 ± 0.083
CN1CCN(c2c(F)cc3c(=O)c(C(=O)O)cn4c3c2SCC4)CC1 [Rufloxacin hydrochloride]	1.09 ± 0.12	0.839 ± 0.18	1.64 ± 1.2	0.329 ± 0.089	1.04 ± 0.32	1.74 ± 0.56
CC(=O)[C@]1(O)Cc2c(O)c3c(c(O)c2[C@@H](O[C@H]2C[C@H](N)[C@H](O)[C@H](C)O2)C1)C(=O)c1ccccc1C3=O [Idarubicin hydrochloride]	0.0193 ± 0.027	0.00433 ± 0.0025	0.02 ± 0.016	0.000217 ± 8e-05	–	–
O=C(NCCO[N+](=O)[O-])c1cccnc1 [Nicorandil]	1.64 ± 0.42	0.972 ± 0.056	0.556 ± 0.098	0.778 ± 0.14	1.04 ± 0.26	1.4 ± 0.15

From the supplement of paper PMC7238544
